# Laboratory results as given in the supplement of paper PMC3334620.
# The full ranking holds about 33,000 sequences; the median of “E-score (-0.5 to 0.5)” is about -0.021, and the highest 2% start at about 0.32. This is one part of the list.
# Target: T1, Zap1 (UniProt P47043)
# T1 sequence: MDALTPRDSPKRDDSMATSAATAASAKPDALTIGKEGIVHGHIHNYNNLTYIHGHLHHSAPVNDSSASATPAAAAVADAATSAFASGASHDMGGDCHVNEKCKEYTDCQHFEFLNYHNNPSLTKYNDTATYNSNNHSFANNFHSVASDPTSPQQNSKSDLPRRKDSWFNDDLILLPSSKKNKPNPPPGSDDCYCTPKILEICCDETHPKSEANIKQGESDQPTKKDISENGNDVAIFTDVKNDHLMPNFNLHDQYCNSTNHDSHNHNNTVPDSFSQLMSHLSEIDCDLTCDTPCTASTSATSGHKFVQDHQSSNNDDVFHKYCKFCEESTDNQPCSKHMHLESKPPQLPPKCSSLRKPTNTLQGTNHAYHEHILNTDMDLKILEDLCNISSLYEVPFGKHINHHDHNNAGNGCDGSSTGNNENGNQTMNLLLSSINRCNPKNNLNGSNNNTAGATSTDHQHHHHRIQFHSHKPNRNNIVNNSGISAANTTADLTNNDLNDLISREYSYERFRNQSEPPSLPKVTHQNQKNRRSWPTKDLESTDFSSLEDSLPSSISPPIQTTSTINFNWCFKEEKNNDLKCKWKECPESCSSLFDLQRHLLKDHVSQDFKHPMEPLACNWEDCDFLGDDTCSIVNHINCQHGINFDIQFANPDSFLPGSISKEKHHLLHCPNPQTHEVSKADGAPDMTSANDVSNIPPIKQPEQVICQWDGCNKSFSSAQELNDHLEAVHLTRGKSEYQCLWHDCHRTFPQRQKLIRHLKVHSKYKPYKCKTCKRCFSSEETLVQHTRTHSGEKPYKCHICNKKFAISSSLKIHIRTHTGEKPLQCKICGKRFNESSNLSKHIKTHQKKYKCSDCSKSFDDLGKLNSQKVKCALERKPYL
# Test: PBM E-score (8-mer binding enrichment) (E-score (-0.5 to 0.5)); higher = stronger / more preferred TF binding; most listed sequences are background and not binding sites
# Details: protein concentration: 200 nM; construct: GST-full length
# Procedure: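 Universal 'all 10-mer' protein binding microarrays (Agilent AMADID 015681) probed with GST-tagged S. cerevisiae TFs (full-length or DBD) made by in vitro transcription/translation (PURExpress), about 100-200 nM. Bound TF was detected with fluorescent anti-GST. Each ungapped 8-mer (which stands for itself and its reverse complement) is scored by the PBM enrichment score (E-score), a modified Wilcoxon-Mann-Whitney statistic from -0.5 to +0.5, computed with the Universal PBM Analysis Suite. Scale: above 0.35 generally sequence-specific binding.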
row,Sequence,PBM E-score
1,AACGTGGC,0.00227
2,CGATCCGC,-0.0876
3,ACTCGGGA,0.0288
4,AGTATTAC,0.135
5,AGTTACTG,-0.0654
6,ACTGAAAT,-0.0339
7,ATGATGTC,-0.115
8,CCCTCAGG,0.15
9,AGAAATGG,-0.021
10,CCTGGCTA,-0.076
11,CACAAGGC,-0.126
12,CAGGAGTC,-0.0562
13,TGAGCTCA,-0.0124
14,CATCAACA,-0.0272
15,CACATGTG,-0.0723
16,AGACTGGA,-0.178
17,AATGTCCG,-0.023
18,GAAAGCCA,-0.0639
19,CTGTCACA,-0.0635
20,AAAAATTA,0.165
21,ATGCGTGC,-0.29
22,GAATGTCC,-0.0577
23,AAGGATCA,0.106
24,AACTTTAA,0.249
25,TAGCTGGA,-0.192

row,Sequence,PBM E-score
1,ATGAAGAC,0.0365
2,GGGAGCTA,-0.213
3,CGTACGCC,-0.234
4,ATAAGGCA,-0.259
5,GAGCGTGA,-0.112
6,CTCGTGGA,0.0211
7,ATGAGTTG,0.0665
8,ATGTAGAA,-0.0546
9,AAATCGCC,-0.213
10,CACAGTTA,0.145
11,CAATCAAG,0.00432
12,CGAAAAGA,0.157
13,TGCAAACA,-0.123
14,CGAATCGA,0.00445
15,ACTAGGCG,-0.0942
16,GTTGTAGA,0.0206
17,ATCCCGCG,0.116
18,CGTTGCTC,-0.0141
19,ACGATACC,0.212
20,AAGCAGAT,0.056
21,CGTGTCTC,-0.135
22,ATGTCACC,0.116
23,TGCGATAA,0.291
24,CGTACACA,-0.0291
25,AATGGGGC,-0.124

row,Sequence,PBM E-score
1,AGTGGACC,-0.0131
2,ATGTCCGA,-0.0139
3,CATTAAAC,0.0948
4,CGATTTAA,0.0984
5,CAGGGATG,-0.142
6,CTGTAACC,0.463
7,GCTCTCCC,-0.0421
8,AAAATATT,0.136
9,ATTATGCA,-0.0552
10,AAAGCATG,-0.135
11,CCGGGAAA,0.00998
12,GGGAGGGA,-0.0783
13,CATAAATC,0.11
14,GATTTGGA,-0.23
15,GAGTAACA,0.135
16,AAGGGTCA,0.439
17,ATCTTCTA,0.0604
18,CACCCTGC,0.331
19,ACGGAAGC,-0.121
20,TACCTCAA,0.288
21,GCATTCCC,-0.0762
22,CGCCAGCG,-0.255
23,ACATGATC,0.207
24,TTGTGAAA,0.239
25,AAGGTTTA,0.226

row,Sequence,PBM E-score
1,ATCAACTA,0.116
2,ACATACCC,0.347
3,GCAAAGGA,0.0999
4,ATATTCCC,-0.0164
5,GAATTGCC,-0.178
6,GACCAACC,0.11
7,AAAGCAGA,-0.0585
8,CAAGAGGA,-0.0426
9,AAGCGAAC,-0.158
10,CGCGCTCA,-0.00437
11,ATACGACC,0.0013
12,CTGGGCTA,-0.128
13,CTATTTCA,0.25
14,ACGAGCAG,-0.18
15,AGCGACGG,-0.0755
16,CGCCAGGA,-0.0955
17,AAATCATA,0.144
18,CATCTTCC,-0.048
19,ACCGTCGT,0.0499
20,ACATTGGC,-0.22
21,CACCGGAC,0.123
22,CGGGCGAA,-0.0912
23,GGGCGAAC,0.0298
24,GTCGGTTA,0.189
25,CGGAGAGA,0.0099

row,Sequence,PBM E-score
1,AGGCGAAA,-0.114
2,TAGCGATA,0.0683
3,CAGGATGG,-0.0657
4,CAGGTTAC,0.424
5,AACCATGA,0.357
6,AATGCATT,0.0421
7,ATCCAACG,-0.139
8,GAATCCAA,-0.0693
9,GACGGGAC,-0.272
10,ACCCAGTG,0.16
11,AAGGAAAC,-0.01
12,ACACACTA,-0.0203
13,GCTGGCCC,-0.306
14,CTTTACAC,0.161
15,AGATATGC,-0.193
16,AAGCGTCC,-0.169
17,CAGCAGAG,-0.136
18,AAGGTACA,0.223
19,CGCTAAAG,0.143
20,AAAAGTCA,-0.12
21,CAAAGAGA,0.00712
22,ACTTGTGC,-0.146
23,TCGTTGAA,-0.00772
24,AAATCCTC,-0.279
25,ATAACTCC,0.128

row,Sequence,PBM E-score
1,CATATACA,0.109
2,CTAGGTAC,0.115
3,ACCGAGCT,-0.0899
4,GGATGCCC,-0.0591
5,CATAGTGA,-0.149
6,CGCAGACA,-0.04
7,ATGGTCAA,0.245
8,CATCCCAG,-0.03
9,ATATTCCA,0.0267
10,CTGCACCC,-0.0926
11,ATGACGGC,0.004
12,CGAGGAAA,-0.0957
13,CTATTTTC,0.0118
14,GCGCTGAC,-0.185
15,GTCACCTA,-0.104
16,CTGTATAC,0.0219
17,GTCAGTCA,-0.148
18,ACTTAATC,0.00205
19,ACGATTGC,-0.11
20,GGTATCAC,0.0481
21,GGCATCAC,-0.212
22,ATACACAT,-0.00633
23,GTACAGCA,-0.00655
24,ACAGATAC,0.111
25,AGGTTTTC,0.215

row,Sequence,PBM E-score
1,AATTCGGT,0.219
2,ACCTTAAA,0.247
3,AGCCTAGG,-0.224
4,GACGGTTA,0.305
5,GAATAATA,0.204
6,ACAAGGAT,0.0412
7,CTACGTAC,0.00912
8,ACGGAACC,0.148
9,CTGGTGAA,-0.0889
10,CATTATCG,0.109
11,ATCGGTCA,0.0709
12,AAAGCGAC,0.00189
13,ATAAAAAG,0.268
14,GGGAATAA,0.101
15,ACGGGGGA,-0.316
16,ACGACCCG,0.0256
17,CACGGTGC,0.108
18,CCATCGCC,-0.197
19,CCTATACA,-0.063
20,CGTCCCCA,-0.143
21,GGATTTGA,-0.0668
22,AAAGCACT,0.00349
